# Assay results published in a collection of fitness landscapes (doi:10.1038/s41467-024-54723-y).
# The full ranking holds about 18,000 sequences; the median of “TetR repression strength (sort-seq, GFP reporter)” is about 0.23, and the highest 2% start at about 0.68. The list shows a part of the results.
# Target: TetR (class B, Tn10) (UniProt P04483)
# Assay: TetR repression strength (sort-seq, GFP reporter) (relative to tetO2 = 1); higher = stronger repression
# Conditions: E. coli
# In short: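 Repression strength was calculated by subtracting the read-weighted mean bin from the top bin index plus one and dividing by the unaltered operator's value. The plasmid library was low-copy in E. coli SIG10-MAX, with eight randomized operator positions between a constitutive promoter and sfGFP and constitutive TetR. Cultures grew 5 h at 37 °C in LB containing 50 µg/mL chloramphenicol before 10^6 cells were sorted by FACS into 13 fluorescence bins, each sequenced on Illumina. Three independent transformations were averaged for members having ≥30 reads in all replicates and a CV ≤0.5.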
# Chain of UniProt P04483 (P04483 whole entry): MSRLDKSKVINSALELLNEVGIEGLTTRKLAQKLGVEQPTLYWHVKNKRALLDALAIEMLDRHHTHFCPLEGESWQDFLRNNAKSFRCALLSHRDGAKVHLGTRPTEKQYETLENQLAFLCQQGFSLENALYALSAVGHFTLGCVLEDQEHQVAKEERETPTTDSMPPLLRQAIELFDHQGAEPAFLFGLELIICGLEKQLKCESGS
row,Sequence,TetR repression strength
1,TCCCTATAAGTTTATGAGA,0.294
2,TCCCGACTAGTGAGAGAGA,0.502
3,TCCCTCCCAGTTAGTGAGA,0.266
4,TCCCCACGAGTTCAGGAGA,0.271
5,TCCCGCATAGTGAGTGAGA,0.148
6,TCCCTATTAGTGGGTGAGA,0.364
7,TCCCGATGAGTGTATGAGA,0.28
8,TCCCAAGTAGTCGGCGAGA,0.346
9,TCCCTCTAAGTAGCGGAGA,0.0363
10,TCCCATTCAGTTGTGGAGA,0.217
11,TCCCAAATAGTCGTAGAGA,0.563
12,TCCCCGCTAGTGAAGGAGA,0.591
13,TCCCGATCAGTATAGGAGA,0.173
14,TCCCTAGGAGTGTGAGAGA,0.146
15,TCCCCTGAAGTCGGAGAGA,0.237
16,TCCCATTAAGTGCATGAGA,0.106
17,TCCCAAAGAGTTATCGAGA,0.15
18,TCCCGTTGAGTCGATGAGA,0.335
19,TCCCTATTAGTACGGGAGA,0.226
20,TCCCAATAAGTGACAGAGA,0.451
21,TCCCAGATAGTATGAGAGA,0.291
22,TCCCGGATAGTTTTGGAGA,0.21
23,TCCCAGGAAGTTAGGGAGA,0.245
24,TCCCCGTGAGTATTCGAGA,0.179
25,TCCCGAGCAGTCCATGAGA,0.277
26,TCCCGTCAAGTAGTGGAGA,0.12

row,Sequence,TetR repression strength
1,TCCCTATGAGTCCGGGAGA,0.0385
2,TCCCCGGCAGTCGGCGAGA,0.173
3,TCCCGAAAAGTCTTAGAGA,0.312
4,TCCCTGTTAGTTGTAGAGA,0.271
5,TCCCTGATAGTGGCAGAGA,0.261
6,TCCCGGCAAGTGAGGGAGA,0.17
7,TCCCAAAAAGTTGTAGAGA,0.458
8,TCCCCCCGAGTTGCCGAGA,0.311
9,TCCCTATCAGTAAGGGAGA,0.379
10,TCCCCGCGAGTAGGGGAGA,0.245
11,TCCCTTCTAGTGTGCGAGA,0.355
12,TCCCATGGAGTAATTGAGA,0.155
13,TCCCGCTTAGTTTCGGAGA,0.238
14,TCCCTAAAAGTATGAGAGA,0.18
15,TCCCGCAAAGTGGGGGAGA,0.065
16,TCCCGTGCAGTGATAGAGA,0.647
17,TCCCGCGTAGTTGTGGAGA,0.128
18,TCCCGATTAGTGTAAGAGA,0.295
19,TCCCGTGTAGTTGGAGAGA,0.191
20,TCCCGTAAAGTAGGGGAGA,0.219
21,TCCCATGTAGTCAAGGAGA,0.325
22,TCCCGCGGAGTTGAAGAGA,0.287
23,TCCCGGTCAGTATATGAGA,0.275
24,TCCCGCCAAGTCCCGGAGA,1.1
25,TCCCGTAGAGTCAGGGAGA,0.142
26,TCCCTTGAAGTGCTAGAGA,0.276

row,Sequence,TetR repression strength
1,TCCCAGTGAGTACAGGAGA,0.186
2,TCCCGTTAAGTGGTCGAGA,0.269
3,TCCCGAGAAGTTCGGGAGA,0.256
4,TCCCAATGAGTTGGGGAGA,0.229
5,TCCCCGTCAGTGTGAGAGA,0.212
6,TCCCGGTAAGTGTATGAGA,0.124
7,TCCCGATCAGTACGTGAGA,0.333
8,TCCCAATAAGTTCCTGAGA,0.155
9,TCCCGGCTAGTCTTCGAGA,0.303
10,TCCCCACCAGTACTAGAGA,0.346
11,TCCCATTTAGTGATAGAGA,0.555
12,TCCCTGGTAGTGGCCGAGA,0.246
13,TCCCCGCTAGTCCATGAGA,0.202
14,TCCCCAGGAGTATGGGAGA,0.0668
15,TCCCTAGCAGTCACGGAGA,0.243
16,TCCCGGAAAGTAGAAGAGA,0.122
17,TCCCCAGGAGTACACGAGA,0.21
18,TCCCCCTGAGTGATGGAGA,0.222
19,TCCCATTAAGTGATAGAGA,0.513
20,TCCCGGCGAGTTACTGAGA,0.179
21,TCCCAAGTAGTTCAGGAGA,0.205
22,TCCCAATAAGTTCAAGAGA,0.362
23,TCCCATCTAGTACTTGAGA,0.302
24,TCCCGGAAAGTCTTGGAGA,0.0589
25,TCCCAGAAAGTGAAAGAGA,0.207
26,TCCCGTCTAGTGCAAGAGA,0.332

row,Sequence,TetR repression strength
1,TCCCCCTGAGTTGTCGAGA,0.345
2,TCCCTTAGAGTTCGTGAGA,0.286
3,TCCCCACGAGTGGGGGAGA,0.222
4,TCCCTGACAGTGCGGGAGA,0.127
5,TCCCTAAGAGTGAGCGAGA,0.294
6,TCCCTAACAGTTACTGAGA,0.297
7,TCCCGGTCAGTCCGGGAGA,0.429
8,TCCCTATGAGTTACAGAGA,0.164
9,TCCCATGTAGTCCATGAGA,0.41
10,TCCCGGCCAGTGTTTGAGA,0.272
11,TCCCGCGGAGTCGGAGAGA,0.0978
12,TCCCACATAGTTCTTGAGA,0.259
13,TCCCGAATAGTAGCTGAGA,0.376
14,TCCCAGGCAGTCGTAGAGA,0.0886
15,TCCCCGCAAGTATCGGAGA,0.157
16,TCCCGAGTAGTGTGGGAGA,0.105
17,TCCCTGGTAGTAGGTGAGA,0.0497
18,TCCCGATTAGTGACGGAGA,0.0748
19,TCCCGGGCAGTGGCGGAGA,0.318
20,TCCCAGGAAGTCGGGGAGA,0.314
21,TCCCCTTCAGTGTGTGAGA,0.111
22,TCCCACATAGTGTGCGAGA,0.207
23,TCCCACTGAGTGAGGGAGA,0.251
24,TCCCATTGAGTGATAGAGA,0.536
25,TCCCAGTAAGTCTTAGAGA,0.174
26,TCCCAACTAGTCGTAGAGA,0.368

row,Sequence,TetR repression strength
1,TCCCCTCGAGTGGAGGAGA,0.146
2,TCCCGTGCAGTCAACGAGA,0.326
3,TCCCTAGGAGTCCATGAGA,0.124
4,TCCCAGCCAGTCACGGAGA,0.204
5,TCCCTAAGAGTTACCGAGA,0.355
6,TCCCAGATAGTGGTGGAGA,0.217
7,TCCCAGCGAGTCATGGAGA,0.228
8,TCCCATCGAGTAGGTGAGA,0.14
9,TCCCCTGGAGTTCTTGAGA,0.306
10,TCCCAATGAGTGAGTGAGA,0.346
11,TCCCAACAAGTTAAGGAGA,0.118
12,TCCCGTACAGTGATCGAGA,0.283
13,TCCCGACTAGTTCATGAGA,0.529
14,TCCCGGGGAGTTATGGAGA,0.26
15,TCCCCTTTAGTTCAGGAGA,0.113
16,TCCCGGCCAGTGCTGGAGA,0.176
17,TCCCGACTAGTGATTGAGA,0.622
18,TCCCGATCAGTCTGTGAGA,0.205
19,TCCCTGGGAGTAAGGGAGA,0.28
20,TCCCGAGTAGTCGGAGAGA,0.115
21,TCCCACCGAGTTGTGGAGA,0.15
22,TCCCAACAAGTGTAGGAGA,0.197
23,TCCCTGGTAGTGGTAGAGA,0.203
24,TCCCGTTTAGTGCAAGAGA,0.27
25,TCCCTGGTAGTATGGGAGA,0.359
26,TCCCATGAAGTGTTGGAGA,0.587
